# US20090291088A1, “THERAPEUTIC COMBINATIONS OF ANTI-IGF-1R ANTIBODIES AND OTHER COMPOUNDS” (Biogen Idec MA Inc., priority 2008, published 2009)
# How the values were obtained:
# hIGF-1R-Fc mutants = assay: Epitope mapping: antibody binding to IGF-1R mutant proteins; design: species or system human
# Experimental: Mouse and human IGF-1R share 95% primary amino acid sequence identity. Human IGF-1R and human INSR share 57% identity (73% similarity). […] Twenty of these residues were targeted for mutation because the homologous positions within the INSR ectodomain were exposed to solvent based on the recent INSR crystal structure (pdb code 2DTG, McKern 2006). Accessible surface areas were calculated using StrucTools (http://molbio.info.nih.gov/structbio/basic.html) with a 1.4 Å probe radius.
# hIGF-1R(1-462)-Fc = target: T1, hIGF-1R(1-462)-Fc (Homo sapiens, UniProt P08069); assay: SPR binding of immobilized antibodies to truncated hIGF-1R(1-462)-Fc versus hIGF-1R(1-903)Fc; conditions: surface immobilized antibody
# T1 construct: host or cells: CHO
# Description: Next, we investigated whether M13-C06 binds the putative ligand binding domains of IGF-1R (L1-CR-L2). We generated a truncated version of the receptor containing the N-terminal three domains (residues 1-462) fused to an IgG1-Fc and compared its ability to bind M13-C06, M14-C03, and M14-G11 to that of the full-length receptor ectodomain construct, hIGF-1R-Fc, using surface plasmon resonance (SPR).
# hIGF-1R-Fc [1] = target: T2, hIGF-1R-Fc (Homo sapiens, UniProt P08069); assay: Antibody cross-blocking ELISA with Zenon-labeled αIR3; assay type: binding
# T2 construct: (3) human IGF-1R(1-903)-Fc (hIGF-1R-Fc, Biogen Idec); host or cells: CHO
# Experimental: The ability of various antibodies to block murine αIR3 was determined using “Zenon-Fab-HRP” labeled αIR3 and hIGF-1R-Fc. αIR (IgG1) was ZENONO®-Fab-HRP labeled as described by the manufacturer (Invitrogen Cat. No. Z25054). Briefly, 50 μL of 2 μg/mL hIGF-1R-Fc in 1×PBS were coated per well of a 96-well clear MaxiSorp plate (Nunc) for 2 hours at RT (no shaking). Plates were washed with 1×PBS and blocked overnight at 2-8° C. using a PBS/1% BSA solution. Plates were washed and incubated with a 100 μL mixture of Zenon-labeled αIR3 (40 ng/mL) and inhibitor antibody for 1 hour at RT. Inhibitor antibodies were serially diluted (5-fold dilutions) from 40 μg/mL to 3 ng/mL. A control inhibition was performed by serial dilution of a non-IGF-1R specific IgG4 isotype control antibody with Zenon-labeled αIR3. Plates were washed and 100 μL/well SureBlue Reserve TMB Microwell Peroxidase Substrate (KPL, Cat. No. 53-00-01) was added to the wells. Detection of Zenon-labeled αIR3 was performed by reading the absorbance at 650 nm every 5 minutes using a Wallac 1420-041 Multilabel Counter plate reader.
# hIGF-1R-Fc [2] = target: T2, hIGF-1R-Fc; assay: IGF-1 and IGF-2 blocking ELISA-based competition assay; assay type: binding
# Experimental: hIGF-1R-Fc was biotinylated using EZ-Link Sulfo-NHS-LC-Biotin according to the protocol provided by the manufacturer (Pierce Cat. No. 21335). Biotinylated human IGF-1R-Fc at 5 μg/ml was added to the wells of SigmaScreen streptavidin-coated 96-well plates (Sigma, Cat. No. M5432-5EA; Sigma-Aldrich Corp. (St. Louis, Mo., USA)) at 100 μL/well and incubated overnight at 2-8° C. The plates were then washed four times with 200 μL/well PBST. […] Dilutions were made from 1.3 μM to 10 pM for M13-C06 and M14-C03, from 5.2 μM to […] for M14-G11, and from 2.6 μM to 10 pM for both P1E2 and αIR3. Human IGF-2 His was prepared at 320 nM in PBST, 1.0 mg/ml BSA. The antibodies were serial diluted (from […] to 5 pM for M13-C06 and M14-C03, from 5.2 μM to 5 pM for M14-G11 and αIR3, and from 5.2 μM to 20 pM for P1E2) using a solution of 320 nM IGF-2 His. The dilutions were added to the plates in duplicate at 100 μL/well and the plates were incubated at RT for 1 hour. The plates were then washed four times with 200 μL/well PBST. An HRP-conjugated anti-Histag antibody (Penta-His HRP Conjugate, QIAGEN, Cat. No. 1014992) was diluted 1:1000 in PBST and added to plates at 100 μL/well, and the plates were incubated at RT for one hour. The plates were then washed four times with 200 μL/well PBST. SureBlue Reserve TMB Microwell Peroxidase Substrate (KPL, Cat. No. 53-00-01) was added to plates at 100 μL/well followed by 1% phosphoric acid at 100 μL/well once the desired reaction was observed. The absorbance of each well was determined at 450 nm, and the results were normalized and plotted against the log of antibody concentration.
# murine IGF-1R = target: T3, murine IGF-1R (Mus musculus, UniProt Q60751); assay: Binding to murine IGF-1R expressing CHO cells
# T3 construct: expressed in transfected cells; host or cells: CHO cells
# T3 sequence (Q60751 31-737 limits assumed): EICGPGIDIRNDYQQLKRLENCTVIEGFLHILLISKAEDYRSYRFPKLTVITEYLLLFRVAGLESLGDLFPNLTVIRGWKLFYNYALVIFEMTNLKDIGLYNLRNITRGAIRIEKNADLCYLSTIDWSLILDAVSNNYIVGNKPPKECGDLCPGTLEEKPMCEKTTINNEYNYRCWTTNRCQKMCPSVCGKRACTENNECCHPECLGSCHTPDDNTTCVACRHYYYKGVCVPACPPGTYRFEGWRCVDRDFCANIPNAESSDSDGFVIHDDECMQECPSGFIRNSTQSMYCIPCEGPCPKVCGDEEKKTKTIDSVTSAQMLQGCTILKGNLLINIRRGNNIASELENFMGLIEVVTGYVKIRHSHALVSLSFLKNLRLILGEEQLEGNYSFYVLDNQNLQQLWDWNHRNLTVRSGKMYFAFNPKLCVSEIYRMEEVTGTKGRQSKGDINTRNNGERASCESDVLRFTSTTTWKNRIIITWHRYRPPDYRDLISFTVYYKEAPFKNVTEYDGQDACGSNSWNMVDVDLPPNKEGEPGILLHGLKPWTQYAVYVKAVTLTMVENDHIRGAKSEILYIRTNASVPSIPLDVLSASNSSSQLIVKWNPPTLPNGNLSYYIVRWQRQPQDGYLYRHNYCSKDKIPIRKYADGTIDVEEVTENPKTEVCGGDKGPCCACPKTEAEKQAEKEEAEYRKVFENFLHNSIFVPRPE
# T3 sequence (Q60751 742-1373 limits assumed): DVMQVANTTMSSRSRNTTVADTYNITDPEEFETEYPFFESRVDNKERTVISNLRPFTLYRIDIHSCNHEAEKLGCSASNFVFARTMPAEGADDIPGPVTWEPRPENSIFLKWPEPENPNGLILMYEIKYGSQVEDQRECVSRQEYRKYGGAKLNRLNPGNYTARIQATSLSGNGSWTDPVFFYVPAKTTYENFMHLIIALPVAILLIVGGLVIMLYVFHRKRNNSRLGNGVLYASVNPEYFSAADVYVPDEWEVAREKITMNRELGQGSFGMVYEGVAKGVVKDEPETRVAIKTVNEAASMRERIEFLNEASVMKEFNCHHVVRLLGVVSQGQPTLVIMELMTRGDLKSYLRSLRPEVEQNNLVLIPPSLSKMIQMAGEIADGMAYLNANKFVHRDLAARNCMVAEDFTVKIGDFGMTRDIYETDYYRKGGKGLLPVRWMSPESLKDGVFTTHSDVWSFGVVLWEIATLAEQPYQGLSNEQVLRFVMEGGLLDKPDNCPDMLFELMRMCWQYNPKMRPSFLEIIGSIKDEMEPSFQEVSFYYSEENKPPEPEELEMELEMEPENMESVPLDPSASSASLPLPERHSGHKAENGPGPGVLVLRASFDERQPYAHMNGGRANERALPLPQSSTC
# Experimental: The ability of anti-human IGF-1R antibodies to recognize the IGF-1R from non-human primates was tested. First Rhesus and cynomolgus monkey IGF-1R was cloned and expressed in CHO cells. The binding of all antibodies was determined by flow cytometry and confirmed by confocal microscopy.
molecule,measurement,setting,value
"M14-G11: anti-IGF1-R antibody, competitive blocker of IGF-1 and IGF-2 (antibody, V domains shown, Antibody variable heavy chain sequence; Antibody variable light chain sequence) VH: EVQLLESGGGLVQPGGSLRLSCAASGFTFSNYPMYWVRQAPGKGLEWVSRISSSGGRTVYADSVKGRFTISRDNSKNTLYLQMNSLRAEDTAVYYCARDRWSRSAAEYGLGGYWGQGTLVTVSS VL: DIQMTQSPDSLAVSLGERATINCKSSQSVLYSSNNKNYLAWYQQKPGQPPKLLIYLASTRESGVPDRFSGSGSGTDFTLTISSLQAEDVAVYYCQQYYSTWTFGQGTKVEIK",effect of IGF-1R mutation on antibody binding,hIGF-1R-Fc mutants; residue 248 and 254 (FIG. 37),moderate negative affect
same,effect of IGF-1R mutation on antibody binding,hIGF-1R-Fc mutants; residue 254,moderate negative affect
same,effect of IGF-1R mutation on antibody binding,"hIGF-1R-Fc mutants; residues 28, 227, 237, 285, 286, 301, 327 and 412",no detectable affect
same,effect of IGF-1R mutation on antibody binding,hIGF-1R-Fc mutants; residues 248 and 250,strong negative affect
same,effect of IGF-1R mutation on antibody binding,"hIGF-1R-Fc mutants; residues 257, 259, 260, 263 and 265",weak negative affect
same,binding to truncated hIGF-1R(1-462)-Fc compared with full-length hIGF-1R-Fc,hIGF-1R(1-462)-Fc,equivalent binding
same,αIR3 cross-blocking,hIGF-1R-Fc [1],+++ (+++ = 50-70% competition)
same,blocking of IGF-1 binding to IGF-1R,hIGF-1R-Fc [2]; 320 nM IGF-1 His,block both IGF-1 and IGF-2 in a competitive fashion
same,blocking of IGF-2 binding to IGF-1R,hIGF-1R-Fc [2]; 320 nM IGF-2 His,block both IGF-1 and IGF-2 in a competitive fashion
same,blockade of both ligands (IGF-1 and IGF-2),hIGF-1R-Fc [2]; saturating levels of antibody,100%
"M14-G11.G4.P: full-length human IgG4.P version of Fab M14-G11 (antibody, V domains shown) VH: EVQLLESGGGLVQPGGSLRLSCAASGFTFSNYPMYWVRQAPGKGLEWVSRISSSGGRTVYADSVKGRFTISRDNSKNTLYLQMNSLRAEDTAVYYCARDRWSRSAAEYGLGGYWGQGTLVTVSS VL: DIQMTQSPDSLAVSLGERATINCKSSQSVLYSSNNKNYLAWYQQKPGQPPKLLIYLASTRESGVPDRFSGSGSGTDFTLTISSLQAEDVAVYYCQQYYSTWTFGQGTKVEIK",binding to murine IGF-1R expressing CHO cells,murine IGF-1R,binding
